The RNAGym collection of RNA variant scans (doi:10.7554/elife.90254)
The source gives no read counts; variants with many changes may rest on few reads.

B1: OR4K15 (parent)
chain: GUUAACGGUCAUAGGCCAUGGAAACUAGGAGCACCAUUUCGCUGCCAGUGAAGAAAUGAACAAAGAAAAUCUGGGCCAGGCAGGCAUCAAAAGAAAUAGUCUUGCGCUCAACCAGAAAGUCUGUAAUCAUUUUAAGGGUA

Variants of: B1
Test: self-cleavage, relative activity (ratio to wild type); higher = more cleavage; in vitro, sequencing; the parent is a self-cleaving ribozyme

Variant | self-cleavage
A60G U100C U103C | 1.92
A56G U108C U132A | 0.02
U57G A125G U130C | 0.33
A59U A96G A116U | 0.41
U57G A126G U132C | 0.14
C61U A95U U108A | 0.02
A56G A66G A110U | 1.27
A59U A62G A114G A117U | 0.37
A62G A67G A94U A110U U131C | 0.83
A60G A64G A91G A94U U120C U132C | 0.26
A56G A82G U100C U108A | 0.03
A62G A67G U70A C105A A114G | 0.02
A60G A64G A78C U100A A116G | 0.01
U57C A62G A69U | 1.52
A59G U87C A140G | 0.67
A60U U72A U87C A129G | 0.11
A59G A63G A90G A111U U122A | 0
U57G A69U U100A G106U | 0.01
A59G A67G A91G A117G | 1.86
A59G A94G A135G | 1.51
A60G A86U C112U | 0.02
A59G U108G U133C A134G | 0.01
G58U A129G U131C | 0.88
A56G U57A A82U A86G U133A | 0.26

Variant | self-cleavage
A60U U87C G93A | 0.27
A60U A68G U97C | 1.43
U57C U97C U102C U108C | 0.01
A59G C109U A111U | 0.07
A60G A78U A129G | 0.27
A59G U70A U87A A114U U122C | 0.01
A62G A67G U139A | 1.41
A59G A63U A64G U97A C105U | 0.1
A59G A86G U102C U103C A116G A117G A118C | 0
U57C A67G A91G A98U | 1.38
A60G A95G U100C U127C | 1.72
A60U A62G A63G | 1.4
A59G A91G A117U | 0.66
U57G U122C A126U | 0.61
A62C A67G U131C | 2.12
A59G A68G U70C | 0.11
A59U A60G C113G A114G | 0.01
A60G A78U A92G U108C A116G | 0.01
A56U A64C A90G | 1.4
A56G A67G U72C | 0.28
A60G A69G A78U U100A | 0.04
A56G A94G A96U A134U A140U | 1.47
A59U A90G A94U U131C | 0.2
A59G A78G U127A | 0.19

Variant | self-cleavage
U57C A90U G123A | 1.47
A59G U72A U108C C121U | 0.02
A59G U70C U87C A140G | 0.37
A59U A68G A94G U122C | 0.29
A60G A63G U108A | 0.03
G58U A89U U100C | 1.89
U57C A64G A95U U122A | 1.66
A56G A78G C105U | 0.08
A59G A94G A95G U100C U120C | 2.34
A62G A68G U102C | 1.43
A59G A66G A95G A114G A126G U130C | 0.42
A59G A86G U120C G123A A126G | 0.54
A59G U102A A135G | 1.82
A59U U102C A111G | 0.01
U57C A94G A114G A135U | 0.14
A60G U103C C121A U124C A126G | 1.26
A60G U72C A95G A98C | 0.17
A62G A63G A111G | 0.02
A59U A60G U72A A82U U131C | 0.11
A59G A95G U100C | 2.36
A59U A62G G106C | 0
U57A A67G C77U A94G U130C | 1.37
A59G A78U A82G | 0.09
A60G A78G A117G | 0.15

Variant | self-cleavage
U57C A95G A118G | 1.19
U57G U122C U133A | 0.35
U57C A118U A125G | 0.18
A60U A118G U131C | 0.52
A60G A64U A67G A94G U133C | 0.81
U57C A66G U87C | 1.38
A56G U57A G65U A89U | 1.07
A60G U122A G123A | 1.36
A60G A68G C77U U130C | 2.29
A60G A69C A114U | 0.02
A59U U108C A117G U122C A126G | 0.01
A56G A67G A114G | 0.26
A60G A116G A126G | 0.24
A56G A86C U97C A111G | 0.01
U57A A62U A64U A94G | 1.17
A60G A86G U100G | 0.74
A60G A95G A129G | 1.44
U57A A67G U130G | 1.16
A60U A68U A98G U122C | 0.43
A59U A98G U139C | 0.62
U57C A91G A118U | 0.15
U57C A111G A129G | 0.01
C61U A68G U139C | 0.72
U57A A60G A94G A95G U130C | 0.52

Variant | self-cleavage
A60G A63G A91G U100C | 2.26
G58A A67G A117G U132C | 2.1
U57C A114G A118G | 0.05
A56U A90G A114U | 0.01
A59G C105U U120C | 0.05
A59G A63G A82U | 0.24
A60G A78G C128A | 0.12
A62G A66C U120C A129G | 0.96
C61A U124C A126G | 0.95
A60G A68G A90U A92G U103C C107U | 0
A59G A60G U100C U122C | 2.96
U57C A63G U120C | 0.16
A56G U70C U108C A110G A117G U133A | 0
A59G A66G U72G A91G | 0.15
U57C A92G A116G A135U | 1.08
A56G A92G U108C | 0
A60G C77U A135G | 2.92
U57C U103G A125G | 0.01
A59G A110G A129G | 0.14
A60G A63G A82G A89G A94G A125G U139C | 0.2
U57C C61U U131C | 0.77
U57C A82C U122A A126G | 0.07
A56G A68G C88A U102A A125G | 0.13
A56G U102A U108C | 0.01

Variant | self-cleavage
A59G A96G A111G A117U | 0.03
C61A A116U A129G | 0.1
A59U A90G A110G | 0.1
U57A A59U A126U U131C | 0.94
U57C A59G A94G | 2.16
A60G A68C A134G | 0.74
A60G A62G A92G G136A | 0.7
A59U U70A U122C | 0.63
A60G A98G A116G | 0.09
A60G A63C U122C | 0.92
A60G U87C A95G | 1.43
A56U A117G U122C | 1.55
A60U A67G U72C C121A | 0.49
U57C A64G A129U | 0.97
A59G A96G U130C U132C | 0.92
U57G A62G A82G A118G G123A | 0.08
A59G U72C A90G | 0.29
A60G A69G A95G G115A | 0.06
A59G C101U U108C | 0.01
A59U A64C U120A U131C | 0.53
A59U U100C A129G | 2.82
A60G A68G U70C A92G U108A | 0
A62G A67G U132C | 0.13
A62C A86G A89G | 1.36

Variant | self-cleavage
A59G A67G G74U A116G U122C | 0.02
C61U U70A U127C | 0.9
A60G A69G A95G | 1.28
A60G A90U U124C | 1.28
A59G U70C A135G | 0.13
A60G A82G U87C A91U A111G | 0.02
A60G A82G A117G A118G | 0.19
A56G A66G A92U A135G | 0.74
A56U U97C U132C | 0.41
A60G U120C U127C | 0.65
U57C A67G C76A | 0.16
A60G A91G A98G | 0.25
A56G U120C U124A | 0.25
A60G U72A C88A A118G | 0.08
A60G A82U U127C | 0.13
A60G G119A U122A | 1.85
A59G A60G A111U | 0.11
A60G U87C A110G | 0.08
A60G U103C A126G | 0.4
A56U A59G A82U | 0.12
A60G A66G A96G | 0.81
A56G A69G A94G A117G A126G | 1.42
A60G A67G A117G | 1.83
